Experimental data: PubChem BioAssay AID1347073 (National Center for Advancing Translational Sciences (NCATS), 2019)
The campaign covered roughly 45,000 compounds. About 200 (0.44%) were called active. Another 7% or so got no clear call; they are omitted. Calls come from the whole dose curve; as a rule, active = well fitted activation curve with a large enough effect; inconclusive = small, poorly fitted or top-dose-only effect; inactive = no such curve, though single readings can be large or run the other way. Some of the results follow.

Assay: qHTS of TDP-43 Inhibitors: NCGC Sytravon Library Screen; note: 0% is about no effect; nearly all actives have a fitted effect of over 55% in size
Conditions: yeast TDP-43 toxicity rescue, BacTiter-Glo growth, 24 h; series mostly up to 46.1 µM; growth rescue (activation): at the top concentration
Method in brief: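 TDP-43-expressing yeast, pregrown in raffinose, seeded at OD600 0.02 in galactose medium with compound for 24 hr at 30 deg C. Growth read by BacTiter-Glo luminescence, so rescue of toxicity appears as activation.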
In the case of `CCCNS(=O)(=O)c1ccc(CCC(=O)Nc2ccc3c(c2)OCCO3)cc1`, the “growth rescue (activation)” value is reported as inactive: 13.7%. With `Cc1cccc(C(C(=O)NC2CCCC2)N(C(=O)c2csnn2)C2CCCC2)c1` (stereo not drawn) the “growth rescue (activation)” value was inactive: 8.11%. With `COc1ccc(N(C(=O)Cn2nnc3ccccc32)C(C(=O)NC(C)(C)C)c2ccc(OC)c(O)c2)cc1` (stereo not drawn) the “growth rescue (activation)” value was inactive: -8.9%. In the case of `CCN(CC)S(=O)(=O)c1ccc(OC)c(NC(=O)c2cccs2)c1`, the “growth rescue (activation)” value is reported as inactive: 23.6%. With `CCOC(=O)C1(CCOc2ccccc2)CCN(Cc2cc(OC)c3c(c2)OCO3)CC1` the “growth rescue (activation)” value was inactive: 4.02%. With `CC[N+](CC)(CC#Cc1ccccc1)CC#Cc1ccccc1` the “growth rescue (activation)” value was inactive: -2.57%. With `CCCOc1ccc(C2c3c(oc4ccccc4c3=O)C(=O)N2c2ccc(C)cn2)cc1OCC` (stereo not drawn) the “growth rescue (activation)” value was inactive: 7.36%. For `Cn1c(SCC(=O)N2CCOCC2)nnc1-c1ccncc1`, the “growth rescue (activation)” value was inactive: -3.85%. With `Cc1ccc(O)c(NC(=O)CSc2n[nH]c(C)c2[N+](=O)[O-])c1` the “growth rescue (activation)” value was inactive: 1.47%. For `Cc1c(NC(=S)NC(=O)c2cc3ccccc3o2)c(=O)n(-c2ccccc2)n1C`, the “growth rescue (activation)” value was inactive: 5.11%. With `CC1CCCN(C(=O)c2cc3c(=O)n4ccccc4nc3s2)C1` (stereo not drawn) the “growth rescue (activation)” value was inactive: 10.1%. For `O=[N+]([O-])c1ccc(-c2ccc(/C=N/Nc3nc(NCc4ccccc4)nc(N4CCOCC4)n3)o2)cc1`, the “growth rescue (activation)” value was inactive: 15.1%. With `O=C(NC1CCCCCC1)c1ccc(Cl)c(S(=O)(=O)N2CCOCC2)c1` the “growth rescue (activation)” value was inactive: 7.18%. In the case of `COc1ccc(NC(=O)c2cc(C3CCCCN3C(=O)c3cc(OC)c(C)c(OC)c3)on2)c(C)c1` (stereo not drawn), the “growth rescue (activation)” value is reported as inactive: 10.5%. In the case of `CCc1cc2c(=O)n(CC(=O)NCCc3ccc(OC)c(OC)c3)cnc2s1`, the “growth rescue (activation)” value is reported as inactive: -8.25%. For `CC(C)[C@H](NC(=O)c1nn(Cc2ccccc2)c(=O)c2ccccc12)C(=O)O`, the “growth rescue (activation)” value was inactive: 14.9%. For `CC(O)(C#CCN1CCOCC1)c1ccccc1` (stereo not drawn), the “growth rescue (activation)” value was inactive: 10.1%. In the case of `Cc1cc(OCc2ccc(C(=O)Nc3ccc(C(=O)O)cc3)o2)ccc1Cl`, the “growth rescue (activation)” value is reported as inactive: 10.2%. In the case of `COc1cc2cc(C(=O)N3CCN(c4ccccc4OC)CC3)[nH]c2cc1OC`, the “growth rescue (activation)” value is reported as inactive: 20.7%. With `CCOP(=O)(OCC)C(NC(=O)c1cc([N+](=O)[O-])cc([N+](=O)[O-])c1)C(F)(F)F` (stereo not drawn) the “growth rescue (activation)” value was inactive: 7.92%. With `O=c1c2ccccc2nnn1CSc1nnc(-c2cccnc2)n1-c1ccccc1F` the “growth rescue (activation)” value was inactive: 1.77%. For `CC(c1ccco1)N(C(=O)c1cccc(S(=O)(=O)N(C)C)c1)c1ccccn1` (stereo not drawn), the “growth rescue (activation)” value was inactive: 3.77%. In the case of `O=C(Nc1sc2c(c1C(=O)NCCO)CCCC2)c1ccco1`, the “growth rescue (activation)” value is reported as inactive: 23.3%. In the case of `CC(C)(C)c1ccc(S(=O)(=O)CC(O)CSc2nc3c(cc2C#N)CCCC3)cc1` (stereo not drawn), the “growth rescue (activation)” value is reported as inactive: 30.4%. For `O=C(NC1CCS(=O)(=O)C1)c1ccc(Br)s1` (stereo not drawn), the “growth rescue (activation)” value was inactive: 4.72%. For `Cc1ccc(S(=O)(=O)Nc2cc(C)cn(Cc3ccc(F)cc3)c2=O)cc1`, the “growth rescue (activation)” value was inactive: 12.8%. With `CC(=O)Nc1ccc(C(=O)OCC(=O)c2ccc(F)cc2)cc1` the “growth rescue (activation)” value was inactive: -21.7%. In the case of `CCCCNC(=O)c1ccc(Cn2c(=S)[nH]c3c([nH]c4ccc(OC)cc43)c2=O)cc1`, the “growth rescue (activation)” value is reported as inactive: 3.28%. For `COc1cccc(/C(O)=C/C(=O)C(=O)Nc2ccc(S(=O)(=O)NC(C)=O)cc2)c1`, the “growth rescue (activation)” value was inactive: -24%. For `C=CCn1c(SCC(=O)Nc2nncs2)nnc1-c1ccco1`, the “growth rescue (activation)” value was inactive: -7%. For `Cc1cccc(C(=O)Nc2cccc(C(=O)N/N=C/c3ccc4c(c3)OCO4)c2)c1`, the “growth rescue (activation)” value was inactive: 0.885%. For `COc1ccc(S(=O)(=O)NCC2CCCO2)cc1C(=O)O` (stereo not drawn), the “growth rescue (activation)” value was inactive: -8.92%. For `COCCN(C(=O)CNC(=O)c1ccco1)C(C(=O)NC1CCCC1)c1ccc(F)cc1` (stereo not drawn), the “growth rescue (activation)” value was inactive: 9.27%. With `COc1ccc(CNC(=O)CN2C(=O)c3ccccc3S2(=O)=O)cc1` the “growth rescue (activation)” value was inactive: -1.25%. For `CN(C)C(=O)C(OC(=O)c1ccc2c(c1)CCCC2)c1ccccc1` (stereo not drawn), the “growth rescue (activation)” value was inactive: 22.2%. In the case of `COc1cc(/C=N/NC(=O)C[n+]2ccccc2)cc(OC)c1OC`, the “growth rescue (activation)” value is reported as inactive: 16.3%. In the case of `O=C(NCCO)Nc1ccc(Cl)cc1`, the “growth rescue (activation)” value is reported as inactive: -9.31%. With `COC(=O)C1=NNC2C(=O)N(c3ccc(C)cc3)C(=O)C12` (stereo not drawn) the “growth rescue (activation)” value was inactive: -6.22%. In the case of `O=C(NCc1ccccc1)C1CCCN(c2nc3ccsc3c(=O)s2)C1` (stereo not drawn), the “growth rescue (activation)” value is reported as inactive: 4.28%. In the case of `Cc1ccc(CNC(=O)COC(=O)c2cccnc2Cl)cc1`, the “growth rescue (activation)” value is reported as inactive: -9.84%. In the case of `CC1(C(=O)Nc2cnc3ccccc3c2)CCN1Cc1ccc2ccccc2c1` (stereo not drawn), the “growth rescue (activation)” value is reported as inactive: -1.31%. In the case of `CN(C)CCCN(Cc1ccccc1)C(=S)Nc1ccc(OC(F)F)cc1`, the “growth rescue (activation)” value is reported as inactive: 9.55%. With `Cc1cccc(N2C(=O)C(O)=C(C(=O)c3cccs3)C2c2cccc(Oc3ccccc3)c2)n1` (stereo not drawn) the “growth rescue (activation)” value was inactive: -1.3%. In the case of `CCc1ccc(C(=O)CSc2nc(C)cc(=O)[nH]2)cc1`, the “growth rescue (activation)” value is reported as inactive: 17.9%. In the case of `COc1ccccc1NC(=O)CSc1n[nH]c(-c2cccnc2)n1`, the “growth rescue (activation)” value is reported as inactive: -1.11%. With `COC(=O)C1(C(F)(F)F)C2C=CC(C2)N1S(=O)(=O)c1ccc(C)cc1` (stereo not drawn) the “growth rescue (activation)” value was inactive: -1.37%. With `NC(=O)NC(CC(=O)N1CCc2ccccc2C1)c1ccc(Cl)cc1` (stereo not drawn) the “growth rescue (activation)” value was inactive: 7.4%. In the case of `COCCNC(=O)C1(C)CCCN(Cc2cccc(OC(=O)c3ccccc3)c2)C1` (stereo not drawn), the “growth rescue (activation)” value is reported as inactive: -0.778%. With `COc1ccc(NC(C)=O)cc1S(=O)(=O)Nc1ccc(S(=O)(=O)N2CCCCC2)cc1` the “growth rescue (activation)” value was inactive: 2.57%. With `c1ccc(CCNc2nc(-c3ccccn3)nc3ccccc23)cc1` the “growth rescue (activation)” value was inactive: 14.2%. For `COc1ccc2c(c1)S(=O)(=O)c1ccccc1N2`, the “growth rescue (activation)” value was inactive: 17.6%. In the case of `CCOC(=O)/C=C/C(=O)OCC(=O)Nc1cccc(Cl)c1Cl`, the “growth rescue (activation)” value is reported as inactive: 30%. In the case of `C=CCN(Cc1ccc(OC)c(OC)c1)C(=O)N1CCOCC1`, the “growth rescue (activation)” value is reported as inactive: 8.28%. For `COc1cccc(CSc2nc3cc4c(cc3cc2C)OCCO4)c1`, the “growth rescue (activation)” value was inactive: 19.9%. In the case of `Cc1cc(C)nc(/N=C(\N)Nc2ccc(S(=O)(=O)Nc3nccc(C)n3)cc2)n1`, the “growth rescue (activation)” value is reported as inactive: -2.89%. With `Nc1nnnn1/N=C/c1ccc(N2CCCCC2)c([N+](=O)[O-])c1` the “growth rescue (activation)” value was inactive: 23.1%. For `CSc1oc(-c2ccco2)nc1S(=O)(=O)c1ccc(C)cc1`, the “growth rescue (activation)” value was inactive: 12.1%. For `O=C(NC(=S)Nc1ccc(N2CCOCC2)c(Cl)c1)c1cccs1`, the “growth rescue (activation)” value was inactive: 6.27%. With `O=C1NC2(CCC3(CC2)OCCO3)NN1c1ccc(Cl)cc1` the “growth rescue (activation)” value was inactive: -5.21%. For `CC(C)c1ccc(CN2CCN(C(=O)CCl)CC2)cc1`, the “growth rescue (activation)” value was inactive: -6.4%. With `COc1ccc(O)c(/C=N/NC(=S)NCCc2ccccc2)c1` the “growth rescue (activation)” value was inactive: 18%. With `O=C(O)c1ccccc1C(=O)Nc1ccc(Br)c2cccnc12` the “growth rescue (activation)” value was inactive: 2.23%. With `COc1ccc(C(=O)NNC(=O)CCC(=O)Nc2ccc(C)cc2C)cc1` the “growth rescue (activation)” value was inactive: 0.247%. For `CN(C)S(=O)(=O)c1ccc(C(=O)Nc2ccn(C)n2)cc1`, the “growth rescue (activation)” value was inactive: -1.27%. In the case of `COC(=O)CSc1n[nH]c(=S)s1`, the “growth rescue (activation)” value is reported as inactive: -4.42%. With `CCc1noc(C)c1C(=O)Nc1sc(C(=O)N(C)C)c(C)c1C#N` the “growth rescue (activation)” value was inactive: 10.8%. For `CC1CN(C(=O)N(C)C)CCN1C(=O)N(C)C` (stereo not drawn), the “growth rescue (activation)” value was inactive: 2.13%. For `O=C(Nc1cccc(S(=O)(=O)NC2=NCCC2)c1)c1ccccc1F`, the “growth rescue (activation)” value was inactive: 4.53%.
